Test results taken from PubChem BioAssay AID504332 (National Center for Advancing Translational Sciences (NCATS), 2011).
Several values for one entry are separate records, joined by “and”; a condition that tells them apart may be missing. Identical values can stand only once. About 31,000 (8.9%) of roughly 350,000 compounds were called active. The shares of active, inactive and inconclusive entries below differ from those in the screen. Calls come from the whole dose curve; as a rule, active = well fitted inhibition curve with a large enough effect; inconclusive = small, poorly fitted or top-dose-only effect; inactive = no such curve, though single readings can be large or run the other way. A potency beside an inconclusive call is a rough fit, not a confirmed value.

Each compound was assayed against Histone-lysine N-methyltransferase EHMT2 (Homo sapiens) (UniProt Q96KQ7) (assay: qHTS Assay for Inhibitors of Histone Lysine Methyltransferase G9a). Conditions: G9a H3K9 monomethylation, AlphaScreen, 2 h; activity, negative = inhibition: at 59 µM (top of the series) unless noted.
Summary of the method: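 G9a (20 nM) preincubated 15 min RT with compounds, then 500 nM biotinylated H3K9 peptide and 20 uM SAM added; 2 h RT reaction. Monomethyl-H3K9 product detected by AlphaScreen with anti-H3K9me1 antibody, streptavidin donor and anti-rabbit IgG acceptor beads.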
% is set by controls: 0 for no effect and ±100 for the full control effect; potency is the fitted concentration of half-maximal effect; tags give direction and shape of the fitted curve.
Note: nearly all actives have a fitted effect of over 75% in size.

Chain of UniProt Q96KQ7 (Q96KQ7 whole entry, looked up): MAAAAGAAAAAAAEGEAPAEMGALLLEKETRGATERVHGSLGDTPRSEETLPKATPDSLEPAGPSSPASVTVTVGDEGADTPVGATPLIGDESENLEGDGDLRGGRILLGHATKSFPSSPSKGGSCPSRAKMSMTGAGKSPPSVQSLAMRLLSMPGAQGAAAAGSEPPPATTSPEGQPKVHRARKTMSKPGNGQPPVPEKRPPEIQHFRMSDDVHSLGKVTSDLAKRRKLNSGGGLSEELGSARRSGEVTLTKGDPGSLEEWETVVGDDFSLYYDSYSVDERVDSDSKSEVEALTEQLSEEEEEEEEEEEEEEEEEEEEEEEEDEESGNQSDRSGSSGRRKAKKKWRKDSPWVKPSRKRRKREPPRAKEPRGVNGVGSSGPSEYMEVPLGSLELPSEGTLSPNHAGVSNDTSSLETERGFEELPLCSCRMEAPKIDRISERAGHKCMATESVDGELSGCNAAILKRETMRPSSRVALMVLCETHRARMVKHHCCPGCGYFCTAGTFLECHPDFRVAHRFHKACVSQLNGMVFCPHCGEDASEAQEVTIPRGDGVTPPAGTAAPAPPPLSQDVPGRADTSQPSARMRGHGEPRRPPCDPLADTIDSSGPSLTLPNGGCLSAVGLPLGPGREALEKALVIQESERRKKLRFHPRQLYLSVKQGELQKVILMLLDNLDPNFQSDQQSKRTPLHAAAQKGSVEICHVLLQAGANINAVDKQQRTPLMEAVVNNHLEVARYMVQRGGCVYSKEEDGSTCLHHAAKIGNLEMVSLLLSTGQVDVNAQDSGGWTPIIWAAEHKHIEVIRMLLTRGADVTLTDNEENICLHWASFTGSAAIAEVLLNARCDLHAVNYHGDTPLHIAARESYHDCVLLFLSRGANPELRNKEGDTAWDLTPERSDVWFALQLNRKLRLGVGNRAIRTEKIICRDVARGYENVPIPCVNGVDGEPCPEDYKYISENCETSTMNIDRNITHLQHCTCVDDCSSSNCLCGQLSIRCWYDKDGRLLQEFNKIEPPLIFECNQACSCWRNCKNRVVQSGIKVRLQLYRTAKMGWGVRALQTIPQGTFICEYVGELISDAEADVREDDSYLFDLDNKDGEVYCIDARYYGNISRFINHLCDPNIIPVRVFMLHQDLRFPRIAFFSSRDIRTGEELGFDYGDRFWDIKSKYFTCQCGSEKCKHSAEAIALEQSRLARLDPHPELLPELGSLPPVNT

SMILES | activity, negative = inhibition | Potency
Cc1ccc(-n2nc(C(=O)N3CCN(c4cc(Cl)ccc4C)CC3)c3c4ccccc4n(C)c3c2=O)cc1 | inactive: 5.22% | –
Cc1ccc(Cl)cc1-n1ncc2c(Nc3cccc(C)c3C)ncnc21 | inactive: -24% | –
Cc1cc(N2CCN(C(=O)c3ccco3)CC2)c2ccccc2n1 | – | inconclusive: 50.1 µM [inhibitor, partial curve]
Cc1cccc(NC(=O)C(NS(=O)(=O)c2ccc3c(c2)oc(=O)n3C)C(C)C)c1 (stereo unspecified) | inactive: -4.7% | –
Cc1ccc(-c2noc(CN(C)C(=O)c3ccc(Br)o3)n2)cc1 | – | active: 50.1 µM
CCCOc1ccc(OCCOCCNCc2ccccc2)cc1 | – | active: 31.6 µM
CCOc1ccccc1/C=N/NC(=O)CNC(=O)c1ccc(S(=O)(=O)N2CCOCC2)cc1 | – | inconclusive: 0.794 µM [inhibitor, partial curve, poor fit]
COC(=O)c1sc(NC(=O)C2CCCCC2C(=O)O)c(C(=O)OC)c1C (stereo unspecified) | – | inconclusive: 89.1 µM [inhibitor, single point]
CC(=O)Nc1cccc(N(C)C)c1 | – | inconclusive: 3.16 µM [inhibitor, partial curve, poor fit]
O=C(Nc1nc2ccccc2s1)c1ccc2c(c1)S(=O)(=O)c1ccccc1C2=O | – | inconclusive: 50.1 µM [inhibitor, partial curve, poor fit]
Cc1csc2nc(CNC(=O)CCC(=O)O)cn12 | – | active: 50.1 µM
Clc1ccc(C2=Nn3c(nnc3-c3cc(-c4ccccc4)n[nH]3)SC2)cc1 | – | inconclusive: 6.31 µM [inhibitor, full curve, poor fit]
COC(CNc1nc(SC)nc2sc3c(c12)CCN(C)C3)OC | – | inconclusive: 56.2 µM [inhibitor, partial curve, poor fit]
CCOc1ccc(S(=O)(=O)Nc2nc3ccccc3nc2Nc2ccc(OC)cc2)cc1 | inactive: 0.636% | –
CCOC1(OCC)N=C(N)C2(C#N)C(c3cccc(OC)c3OC)C12C#N (stereo unspecified) | – | inconclusive: 12.6 µM [inhibitor, partial curve, poor fit]
Cc1ccccc1OCC(=O)Nc1nnc(-c2ccncc2)s1 | – | inconclusive: 50.1 µM [inhibitor, partial curve, poor fit]
Cc1nc(C)c(-c2csc(Nc3ccc(C(=O)O)c(O)c3)n2)s1 | – | inconclusive: 89.1 µM [inhibitor, single point]
COc1ccccc1C1CCCN1Cc1nc(-c2ccc(C)s2)oc1C (stereo unspecified) | – | inconclusive: 50.1 µM [inhibitor, partial curve, poor fit]
COc1cccc(NC(=O)CCN2CCN(c3ccccc3F)CC2)c1 | inactive: 9.99% | –
Cc1cccc(N2CCN(Cc3c(C)n(C)n(-c4ccccc4)c3=O)CC2)c1C | inactive: 11.6% [at 12.7 µM] | –
O=c1[nH]c(-c2cccs2)nc2ccccc12 | inactive: 10.3% | –
CCC(=O)Nc1ccc(C(=O)CSc2nnc(-c3ccc(O)cc3)n2CC2CCCO2)cc1 (stereo unspecified) | – | active: 44.7 µM
Cn1cc(Br)c(C(=O)NNC(=O)c2ccc(Cl)cc2)n1 | – | inconclusive: 2.24 µM [inhibitor, partial curve, poor fit]
O=[N+]([O-])c1ccc(Cl)c(S(=O)(=O)Nc2cccc(-c3ccc(N4CCCC4)nn3)c2)c1 | – | active: 39.8 µM

SMILES | activity, negative = inhibition | Potency
O=C(NCc1ccccc1)c1ccc(-c2ccccc2C(F)(F)F)o1 | – | active: 39.8 µM
O=C(N/N=C/c1ccc2cccnc2c1)c1ccco1 | – | active: 28.2 µM
Cc1ccc(C(=O)NCC(=O)OCC(=O)c2ccc(Br)s2)cc1 | inactive: 8.71% [at 0.501 µM] | –
Cc1cc(C)c(NC(=O)CSc2nnc(CNC(=O)c3ccccc3F)o2)c(C)c1 | – | inconclusive: 89.1 µM [inhibitor, single point]
O=C(NC(CCl)c1ccccc1)c1ccc(Cl)cc1 (stereo unspecified) | – | inconclusive: 0.562 µM [inhibitor, partial curve, poor fit]
CSc1ccc(CN2CCC(Cc3ccccc3)CC2)cc1 | – | active: 7.08 µM
COc1cc(/C=C(\C#N)C(=O)Nc2cccc(C(=O)O)c2)ccc1OCc1ccc(F)cc1 | – | inconclusive: 89.1 µM [inhibitor, single point]
Cc1n[nH]c(C)c1CCC(=O)N/N=C/c1cccs1 | – | inconclusive: 50.1 µM [inhibitor, partial curve, poor fit]
Cc1nc(-c2ccc(S(=O)(=O)NCc3ccc(N(C)C)cc3)cc2)co1 | – | inconclusive: 14.1 µM [inhibitor, partial curve]
CN(CCCC1CCCC1)C(=O)c1cc(COc2c(F)cccc2F)on1 | inactive: 22.7% [at 0.501 µM] | –
O=C(O)Cn1cc(C(=S)N2CCOCC2)c2ccccc21 | – | inconclusive: 2.24 µM [inhibitor, partial curve, poor fit]
CCOC(=O)c1c(C)n(C)c2ccc(OCC(O)Cn3c(C)nc4ccccc43)cc12 (stereo unspecified) | inconclusive: -54.9% [inhibitor] | –
CC(C(Sc1ccccc1N)c1ccccc1)[N+](=O)[O-] (stereo unspecified) | – | active: 3.16 µM
CS(=O)(=O)Nc1cccc(-c2cc(NCc3cccs3)ncn2)c1 | inactive: -38.3% [at 0.501 µM] | –
CCOC(=O)c1ccc(N2C(=O)C3C(C2=O)C(C(=O)c2ccc(Cl)cc2)N2CCCC32)cc1 (stereo unspecified) | – | inconclusive: 2.24 µM [inhibitor, partial curve, poor fit]
COc1cc(C(=S)N2CCOCC2)ccc1OC(=O)c1cc([N+](=O)[O-])cc([N+](=O)[O-])c1 | – | active: 7.94 µM
COc1ccc(/C(N)=N/OC(=O)c2c(-c3ccccc3Cl)noc2C)cc1OC | – | inconclusive: 28.2 µM [inhibitor, partial curve, poor fit]
CCCCn1c(O)c(/C=C/C=C/C=Nc2ccccc2)sc1=S | – | active: 2.82 µM
COc1ccc(-c2nc3n(c(=O)c2C#N)CCS3)cc1 | inactive: -32.7% [at 102 µM] | –
N#CC(c1nc2ccccc2nc1N1CCOCC1)S(=O)(=O)c1ccccc1 (stereo unspecified) | – | inconclusive: 44.7 µM [inhibitor, partial curve, poor fit]
CC(=O)NC(CC(=O)Nc1cccc(S(=O)(=O)N2CCCCC2)c1)c1ccccc1 (stereo unspecified) | – | active: 50.1 µM
C=C(C)CN=c1scc(C)n1/N=C/c1ccco1 | inactive: -4.34% | –
N#CC1=C(N)SC(C(=O)c2ccccc2)C1c1cccs1 (stereo unspecified) | – | inconclusive: 39.8 µM [inhibitor, single point]
Cc1ccc(S(=O)(=O)N(C)C)cc1NC(=O)COC(=O)/C(=C/c1ccc(F)cc1)c1cccs1 | – | inconclusive: 89.1 µM [inhibitor, single point]

SMILES | activity, negative = inhibition | Potency
Cc1ccc(C)c(Cn2c(=O)n(CCCC(=O)NCc3ccco3)c(=O)c3ccccc32)c1 | inactive: 12.5% [at 102 µM] | –
CSc1c[n+]2c(n1C)CCC2 | – | inconclusive: 89.1 µM [inhibitor, single point]
Fc1cccc(Cl)c1/C=N/Nc1ccccn1 | inactive: -11% [at 102 µM] | –
CCN(CC)S(=O)(=O)c1ccc(NC2c3ccccc3C(=O)N2Cc2ccco2)cc1 (stereo unspecified) | – | inconclusive: 79.4 µM [inhibitor, single point]
CCn1cc(/C=N/NS(=O)(=O)c2ccc(C)cc2)c(C)n1 | – | inconclusive: 39.8 µM [inhibitor, single point]
Cc1cc(Cl)ccc1C(=O)C1CCCN(C(=O)c2n[nH]c3c2CCCC3)C1 (stereo unspecified) | – | inconclusive: 25.1 µM [inhibitor, partial curve, poor fit]
CC(C)CC(NS(=O)(=O)c1cc(C(=O)O)ccc1Cl)C(=O)O (stereo unspecified) | – | inconclusive: 70.8 µM [inhibitor, partial curve]
COC(=O)c1cc(C(=O)N2CCN(c3cccc(Cl)c3)CC2)cc([N+](=O)[O-])c1 | – | inconclusive: 44.7 µM [inhibitor, partial curve]
Cc1nn(C(C)C(=O)NCCCN2CCCCCC2)c(=O)c2c1sc1ccccc12 (stereo unspecified) | – | active: 50.1 µM
Nc1nc2c(s1)COc1ccccc1-2 | – | active: 31.6 µM
Cn1nnc2ccccc2c1=O | inactive: -2.88% [at 102 µM] | –
CN1CCN(CCC(=O)Nc2ccc(Cl)cc2)CC1 | – | active: 11.2 µM
CCCCNC(=S)N(C)/N=C/c1c(C)[nH]c2ccccc12 | – | inconclusive: 28.2 µM [inhibitor, single point]
CCC(C(=O)OCCN(CC)CC)c1ccccc1 (stereo unspecified) | – | inconclusive: 44.7 µM [inhibitor, partial curve, poor fit]
CC(C)c1ccc(NC(=O)CCNS(=O)(=O)c2cccc3nsnc23)cc1 | – | inconclusive: 89.1 µM [inhibitor, partial curve, poor fit] and inconclusive: 7.08 µM [inhibitor, single point]
O=C1c2cccnc2C(O)N1Cc1ccco1 (stereo unspecified) | inactive: 5.81% | –
COc1ccc(NC(=O)c2cccc(N3C(=O)C4C5C=CC(C6CC56)C4C3=O)c2)cc1 (stereo unspecified) | inactive: 59.8% [at 102 µM] | –
CCOc1ccc(NC(=O)c2oc3ccccc3c2NC(=O)Cc2cccc(C)c2)cc1 | inactive: -4.38% | –
COc1ccc(S(=O)(=O)N2CCN(C(=O)c3cc(-c4ccc(C)cc4)n[nH]3)CC2)cc1 | inactive: 1.56% [at 102 µM] | –
CC1CC(=O)N(C)c2cc([N+](=O)[O-])ccc2N1 (stereo unspecified) | – | inconclusive: 50.1 µM [inhibitor, partial curve, poor fit]
FC(F)(F)c1cc(CCN2CCNC[C@H]2Cc2cccc3ccccc23)cc(C(F)(F)F)c1 | – | inconclusive: 6.31 µM [inhibitor, single point]
CCOc1ccc(NC(=O)COC(=O)CC2CCCCC2)cc1 | – | inconclusive: 25.1 µM [inhibitor, single point]
CCCCc1ccc(/C=C2\C(=O)ON=C2c2ccccc2)s1 | inactive: 21% | –
